Source: the DeepSol protein solubility set

Assay: soluble on expression in E. coli; label from the status in PepcDB or PDB records

Row | Sequence | soluble on expression in E. coli
1 | AHHHHHHGSAKRFGYSFQNFDPKRMARASARDLRISPKLAVEVCRELRGMMLNDALRYLDDVIALKRPVPLKRYNDSQGHKPGKGFGPGRYPVKVAKAIKKVLLNVKNNAVQKGLDPDKLKIIHIAAHKGPVLRGWYPRAFGRATPFNEQTTHIEVVVEEIRR | not soluble
2 | AHHHHHHGSGDPKRQRKKYETPPHPWIKERLDRERVLMDKYELKNKKELWKHETQLKNFRRRARRLLAARGKQAEIEREQLLARLKRLGLLPEDAVLDDVLSLTIEDILERRLQTIVYKKGLARTMRQARQLIVHGHIEVNGQIIRSPSYLVLKEEEDTITYARTSPFANPQHPERMMIEKAKQGGEA | not soluble
3 | FPVSSKEKNTKTVQDYLEKFYQLPSNQYQSTRKNGTNVIVEKLKEMQRFFGLNVTGKPNEETLDMMKKPRCGVPDSGGFMLTPGNPKWERTNLTYRIRNYTPQLSEAEVERAIKDAFELWSVASPLIFTRISQGEADINIAFYQRDHGDNSPFDGPNGILAHAFQPGQGIGGDAHFDAEETWTNTSANYNLFLVAAHEFGHSLGLAHSSDPGALMYPNYAFRETSNYSLPQDDIDGIQAIYGLSSNPIQPTGPSTPKPCDPSLTFDAITTLRGEILFFKDRYFWRRHPQLQRVEMNFISLFWPSLPTGIQAAYEDFDRDLIFLFKGNQYWALSGYDILQGYPKDISNYGFPSSVQAIDAAVFYRSKTYFFVNDQFWRYDNQRQFMEPGYPKSISGAFPGIESKVDAVFQQEHFFHVFSGPRYYAFDLIAQRVTRVARGNKWLNCRYG | soluble
4 | MAAGGTGGLREEQRYGLSCGRLGQDNITVLHVKLTETAIRALETYQSHKNLIPFRPSIQFQGLHGLVKIPKNDPLNEVHNFNFYLSNVGKDNPQGSFDCIQQTFSSSGASQLNCLGFIQDKITVCATNDSYQMTRERMTQAEEESRNRSTKVIKPGGPYVGKRVQIRKAPQAVSDTVPERKRSTPMNPANTIRKTHSSSTISQRPYRDRVIHLLALKAYKKPELLARLQKDGVNQKDKNSLGAILQQVANLNSKDLSYTLKDYVFKELQRDWPGYSEIDRRSLESVLSRKLNPSQNATGTSRSESPVCSSRDAVSSPQKRLLDSEFIDPLMNKKARISHLTNRVPPTLNGHLNPTSEKSAAGLPLPPAAAAIPTPPPLPSTYLPISHPPQIVNSNSNSPSTPEGRGTQDLPVDSFSQNDSIYEDQQDKYTSRTSLETLPPGSVLLKCPKPMEENHSMSHKKSKKKSKKHKEKDQIKKHDIETIEEKEEDLKREEEIAKLNNSSPNSSGGVKEDCTASMEPSAIELPDYLIKYIAIVSYEQRQNYKDDFNAEYDEYRALHARMETVARRFIKLDAQRKRLSPGSKEYQNVHEEVLQEYQKIKQSSPNYHEEKYRCEYLHNKLAHIKRLIGEFDQQQAESWS | not soluble
5 | MAIWQGRSLKKPSGGRIVLARKKRKRELGREPSNTRVAEQDKRKIIRTYGGNRKVRLTAAAYANVFDKSGKGRKVRIIRVIENPANRQFARRNIITKGAIIETEIGKAKVTSRPGQDGVVNAILLEEMAGDPLEHHHHHH | soluble
6 | MATRTQFENSNEIGVFSKLTNTYCLVAVGGSENFYSAFEAELGDAIPIVHTTIAGTRIIGRMTAGNRRGLLVPTQTTDQELQHLRNSLPDSVKIQRVEERLSALGNVICCNDYVALVHPDIDRETEELISDVLGVEVFRQTISGNILVGSYCSLSNQGGLVHPQTSVQDQEELSSLLQVPLVAGTVNRGSSVVGAGMVVNDYLAVTGLDTTAPELSVIESIFRLQDAQPESISGNLRDTLIETYS | soluble
7 | MGSDKIHHHHHHVIDADKLIFSSSSAEIITQDAVVTFLLQLYFNLTKSSANNMITIKKGLDLPIAGKPEQVIHNGNAVKEVALLGEEYVGMRPSMKVREGDVVKKGQVLFEDKKNPGIVFTAPASGTVTAINRGAKRVLQSVVIKVEGNEQITFTQYNEDELKKLTSDQVRQNLQSSGLWTALRTRPFSKVPASDAVPSSIFVNAMDTNPLSANPEIVLKEHWQDFTDGLTVLSRLHEGKLHLCKAGDSNIPTIDLPNLAVHDFSGPHPAGLSGTHIHFIDPVSVTKSVWYLNYQDVIAIGKLFTTGEIYTDRVVSLAGPQVKNPRLIRTQLGANLSHLTENELSAGENRVISGSVLSGNTAIGPYNYLGRYALQVSVIAEGREKEFLGWIMPGKNKFSITRTVLGHFSSKLFNFTSAVNGGHRAMVPIGAYERVVPLDIIPTLLLRDLASGDTDSAQALGCLELDEEDLALCTFVCPGKNEYGPMLRAALDKIEKEG | not soluble
8 | MNKRRAKGKSHSIRPARAGAPKWVRLTREEVEMLVEELAKRGYTPSMIGIILRDQYGIPLVKQIVGKKVTQILEERGLAPQIPEDLFNLIRKAVNVRRHINEYPRDKTAKKGLEEIESKIRRLTRYYKGIGKLPQEWVYDPAKAELLVAGAS | not soluble
9 | MPGDSLTSSSFMPDGGAETSSSSQLGGSAHGAIGTKPDAGVQFQCPVRPNHGVEGRSILLRANHFAVRIPGGSVQHYQIDVFPDKCPRRVNREVIGCLISSFSKYFTNIRPVYDGKRNMYTREPLPIGTEPMNFEVTLPGDSAVERKFSVTMKWIGQVCLSALDDAMEGRVRQVPHEAVQSIDVILRHLPSLKYTPVGRSFFTPPGVMKPGMQMHQESKLGGGREVWFGFHQSVRPSQWKMMLNIDVSATAFYRAMPVIEFVAEVLELPVQALAERRALSDAQRVKFTKEIRGLKIEITHCGAVRRKYRVCNVTRRPAQTQTFPLQLETGQTIECTVAKYFFDKYRIQLKYPHLPCLQVGQEQKHTYLPPEVCDIVPGQRCLKKLTDVQTSTMIKATARSAPEREREICKLVSKAELSADPFAHEFGITINPAMTEVKGRVLSAPKLLYGGRHRATTALPNQGVWDMRGKQFHTGMEVRTWAIACFAQQSHVKENDLRMFTTQLQRISTDAGMPIIGTPMFCKYASGVEQVEPMFKYLKQTYSAIQLIVVVLPGKTPIYAEVKRVGDTVLGIATQCVQAKNAIRTTPQTLSNLCLKMNVKLGGVNSILLPNVRPRIFNEPVIFLGCDITHPAAGDTRKPSIAAVVGSMDAHPSRYAATVRVQQHRQEIITDLTYMVRELLVQFYRNTRFKPARIVVYRDGVSEGQLFNVLQYELRAIREACVMLESGYQPGITFIAVQKRHHTRLFAADKADQVGKAFNIPPGTTVDVGITHPTEFDFFLCSHAGIQGTSRPSHYHVLWDDNDLTADELQQLTYQMCHTYVRCTRSVSIPAPAYYAHLVAFRARYHLVDRDHGSGEEGSQPSGTSSEDTTLSSMAKAVQVHPDSNNVMYFA | not soluble
10 | MPYKLKKEKEPPKVAKCTAKPSSSGKDGGGENTEEAQPQPQPQPQPQAQSQPPSSNKRPSNSTPPPTQLSKIKYSGGPQIVKKELFIQKLRQCCVLFDFVSDPLSDLKFKEVKRAGLNEMVEYITHSRDVVTEAIYPEAVTMFSVNLFRTLPPSSNPTGAEFDPEEDEPTLEAAWPHLQLVYEFFLRFLESPDFQPNIAKKYIDQKFVLALLDLFDSEDPRERDFLKTILHRIYGKFLGLRAYIRRQINHIFYRFIYETEHHNGIAELLEILGSIINGFALPLKEEHKMFLIRVLLPLHKVKSLSVYHPQLAYCVVQFLEKESSLTEPVIVGLLKFWPKTHSPKEVMFLNELEEILDVIEPSEFSKVMEPLFRQLAKCVSSPHFQVAERALYYWNNEYIMSLISDNAARVLPIMFPALYRNSKSHWNKTIHGLIYNALKLFMEMNQKLFDDCTQQYKAEKQKGRFRMKEREEMWQKIEELARLNPQYPMFRAPPPLPPVYSMETETPTAEDIQLLKRTVETEAVQMLKDIKKEKVLLRRKSELPQDVYTIKALEAHKRAEEFLTASQEAL | not soluble
11 | RTGRFGPRYGLKIRVRVADVEIKHKKKHKCPVCGFKKLKRAGTGIWMCGHCGYKIAGGCYQPETVAGKAVMKA | soluble
